# Variants at the floor of the assay are shown more often than the library holds them.
# B1: TPR 5TU (parent)
# chain: GGAUCUUCUCGAUCUAACAAAAAAGACAAAUCUGCCACAAAGCUUGAGAGCAUCUUCGGAUGCAGAGGCGGCAGCCUUCGGUGGCGCGAUAGCGCCAACGUUCUCAACUAUGACACGCAAAACGCGUGCUCCGUUGAAUGGAGUUUAUCAUG
# Variants of: B1
# Assay: polymerase ribozyme fitness, log enrichment relative to wild type (log ratio); higher = more active; in vitro selection for triplet polymerase activity
# Outline: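 Mutant libraries of both subunits of a heterodimeric triplet polymerase ribozyme were PCR-built, transcribed, and selected once in triplicate, with frozen incubation at −7 °C and capture of gel-excised extended constructs on streptavidin beads before RT-PCR. Illumina sequencing of input and output libraries was filtered to genotypes with ≥10 input reads and ≥1 read per output. Fitness is the logarithm of genotype enrichment over wild-type enrichment, using inverse-variance-weighted replicate averages. The logarithm is base 2.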
row,Variant,polymerase ribozyme fitness (log ratio)
1,G34U C54G G83U A106G C116U G136A,≤ -4.2
2,U33C U53A A91U U144C A147G,≤ -4.2
3,U33G G42A C103U U111G C129A G152U,≤ -4.2
4,C35A A49U C54G C95U,≤ -4.2
5,U33G A49G C54A U55A G117C U127A,≤ -4.2
6,U33G U53A G59A A66G G133U U139A,≤ -4.2
7,C32U G50U G58A U61G C93G C103G A121U C129A G136A G140A U151G,≤ -4.2
8,G34A A37G U45G G94A U134C U139A,≤ -4.2
9,G34C A47C U56A,≤ -4.2
10,G34A G46A A49C G67C C76A,≤ -4.2
11,U33G G58C U90G,≤ -4.2
12,C35A A49G C87A C103A,≤ -4.2
13,C35A C103A,≤ -4.2
14,G34U U90C U102C U151C,≤ -4.2
15,G34U G94C,-3.96
16,G34C C43A G84U C93G G126U U144C,≤ -4.2
17,G34A A41C G86C U90G A137C G140C U146G,≤ -4.2
18,G34U A49G G65A C87U A107U U135C,≤ -4.2
19,U33A U56A G94A,≤ -4.2
20,U33G C38A C93U A113U G136A A138U,≤ -4.2
21,U33G G34C A49U A89G C93A C123G G136U,≤ -4.2

row,Variant,polymerase ribozyme fitness (log ratio)
1,U33A A49U C57U C63U G68A C87G C118A A119G C123A C131G,≤ -4.2
2,U33A G62C C85U A137U,≤ -4.2
3,U33G C85A C118A G126C U146A C149U,≤ -4.2
4,C35A G59U C93A A97C U101G,≤ -4.2
5,U33C A39C G62C G88A C118G C123A,≤ -4.2
6,U33G C87G C105G A121U C123G U134G G143A,≤ -4.2
7,C32U C54G U90G G136U,≤ -4.2
8,U33G A49U A60G G112U U148A U151G,≤ -4.2
9,U33A U44G A107G A122G C132U,≤ -4.2
10,C32U G42C G86C,≤ -4.2
11,G34C G70C G94C U102G A147C A150G,≤ -4.2
12,G34U C99G A106U U127A C132U U139C,≤ -4.2
13,U33A U55A C87A U104C A122G G143A,≤ -4.2
14,G34A C76U U77G U111G,≤ -4.2
15,U33A G88U A91C C103A C105U C125G,≤ -4.2
16,U33G U56A G71A U82C A91C C108U G143C,≤ -4.2
17,C35A A60G C87U C96A G136A U146A,-4.03
18,U33A A60C G74A A137C A150U,≤ -4.2
19,G34A C54G G86A A107G A137U A142C,≤ -4.2
20,C32U G62U A91C,≤ -4.2
21,U33G C69G C79A G92A A106C A115U G136U,≤ -4.2

row,Variant,polymerase ribozyme fitness (log ratio)
1,G34C A52G U78C U82C G86C A106G G143C,≤ -4.2
2,C35A C87A G100U A120U,≤ -4.2
3,U33A G68C C85U C96A,≤ -4.2
4,C32U U61A G74U C76A U82G U90C C95G,≤ -4.2
5,G34A U55A G74U,≤ -4.2
6,G34A C79U U127G A137G G141C,≤ -4.2
7,C35A G88A C125U U127A U135G U148G G152U,≤ -4.2
8,U33C G71C,≤ -4.2
9,C35A C103G C105U A106G U144G,≤ -4.2
10,C32U U33C A41C C75A U139G G140C,≤ -4.2
11,C35A G42A A91U,-3.84
12,G34A A66U C75U A137G,≤ -4.2
13,G34U A106G,-0.622
14,U33C U45A G84U U144C,≤ -4.2
15,C35A G50C C75U C87A C105U A107U C125A C129U U135C,≤ -4.2
16,U33A G65C G71A G92C A98G G100U,≤ -4.2
17,U33G A64G C72G U77A C87G G92C C99A A121U,≤ -4.2
18,C32U U82G A107C,≤ -4.2
19,U33A G84A A97U A110U G143U U144A,≤ -4.2
20,G34A C79G G94A C105U,≤ -4.2
21,U33G C108A A122U,≤ -4.2

row,Variant,polymerase ribozyme fitness (log ratio)
1,U33A G84A C149G,≤ -4.2
2,C35A A52G U61G G84A G94A A120G A121C A137G,≤ -4.2
3,G34A G50C A110G U135G U148G,≤ -4.2
4,C35A G94A U148G,≤ -4.2
5,G34U G88U A91U A122C,≤ -4.2
6,G34U G68U C95G G133A,≤ -4.2
7,G34C G68U C108A G124U U135G C149U,≤ -4.2
8,G34U U55A U82C U90G A107U G143A U144G,≤ -4.2
9,U33C C79G C87U,≤ -4.2
10,G34U A49C G65C G68U C87U C125A,≤ -4.2
11,U33G C75A U104G U139A,≤ -4.2
12,G34A G92A C149A,≤ -4.2
13,U33G G34C A37G A60C A91G G126C U148G,≤ -4.2
14,G34C G81C C93G C118U,≤ -4.2
15,C35A U45A A47G G65U C103U U134C G141U,≤ -4.2
16,U33C A47C G100A U144A,≤ -4.2
17,C32U C54U G88U C116U,≤ -4.2
18,U33A C93A,≤ -4.2
19,C32U U61A G74A G80C C93U U104A U127A U130C U135G G140U,≤ -4.2
20,C32U G68U C93U A147U,≤ -4.2

# From the RNAGym collection of RNA variant scans (doi:10.1073/pnas.2313332121)
